Read counts are not given, so values of variants with three or more changes are uncertain.
B1: OR4K15 (parent)
chain: GUUAACGGUCAUAGGCCAUGGAAACUAGGAGCACCAUUUCGCUGCCAGUGAAGAAAUGAACAAAGAAAAUCUGGGCCAGGCAGGCAUCAAAAGAAAUAGUCUUGCGCUCAACCAGAAAGUCUGUAAUCAUUUUAAGGGUA

Variants of: B1
Experiment: self-cleavage, relative activity (ratio to wild type); higher = more cleavage; in vitro, sequencing; the parent is a self-cleaving ribozyme

| Variant | self-cleavage |
| --- | --- |
| G31A A66G U108C A116G | 0.01 |
| A30G A47G C77U | 1.62 |
| A33G A67G U103C U108C U132C | 0.06 |
| C32U A56G A89G | 1.25 |
| A30G U120C U130A | 0.61 |
| A30C A66G A67U C71G U72G A94G U139A | 0.3 |
| A33G A116G A118G | 0.14 |
| A30U A51G U57A U127C | 0.3 |
| A33C U49C A60G | 1.4 |
| G31C A96C A111U U139A | 0.02 |
| A30G U122A U127C | 0.82 |
| A30G A47G U108A | 0.03 |
| G31C U38C A69G | 1.51 |
| A30G U38C A82G A134G | 0.7 |
| A30U A66G G99U A111U | 0.06 |
| A30G U72A A117U U130C | 0.17 |
| G29A U38C U57C | 1.43 |
| C32U U100C U102C U131C | 2.12 |
| A30G A94G U131C A135G | 0.53 |
| A30G U70C U72C U100C U108A | 0.02 |
| A30G A62G A118G U132C | 0.4 |
| A30G A67U U132C | 1.59 |
| A30G U49A A92U U102C G106A | 0.03 |
| A30C A54G U57C | 0.76 |

| Variant | self-cleavage |
| --- | --- |
| A30G A67G U120C | 0.72 |
| G29U A33G A134G | 0.66 |
| A30G A60G U103C | 1.35 |
| A30G A96G U102A | 0.67 |
| A30U A94G U122A | 2.37 |
| A33G A62G U127C | 0.93 |
| A30G A60G A69G | 1.43 |
| G31U U38C C46U | 2.11 |
| A30G A55C A66G A96G U108C | 0.01 |
| A30G A51G A98U | 1.94 |
| A30U A33G A98G U122C | 0.51 |
| A33C U102A A117G U120C | 0.24 |
| G29A A55G A117G | 2.78 |
| A30U A56G A68G | 0.92 |
| G29A A54G A69G U103C | 0.51 |
| A30G U43C A89U U100C U127A | 2.17 |
| A30G A52G A114C | 0.07 |
| G29A A111G A125G | 0.02 |
| A30G A62U U122C A126G | 0.96 |
| A30G A56G A60G A67G A94G U102C U127C | 0.99 |
| A33G A68U U139G | 1.67 |
| A33G A69G U72C | 0.15 |
| C32U U43A G79A A86G | 0.14 |
| A33G A69U A125G | 0.3 |

| Variant | self-cleavage |
| --- | --- |
| A33G C40U A56G A114G G137A | 0.35 |
| A33C A47G A55U A68G | 0.71 |
| A30G A47G A69U A92G A135G | 1.48 |
| A30U A86G C105G U132C | 0.03 |
| A30G A96G A118G | 1.57 |
| A30C A36U A126G A129U | 0.48 |
| A30G U43A A90U U130C | 1.2 |
| A33G C45G A117G | 1.19 |
| A33G A55G A82G | 0.55 |
| A30G A51G A64G A118C U131C | 0.04 |
| A30G A64G A135U | 1.49 |
| A30C A52G A89G A125G | 0.06 |
| A30G U57A A59G A92G U100C | 1.69 |
| A30U U43C A56G | 1.98 |
| A33G A55G G65U | 0.18 |
| A30G A56G A126U | 0.92 |
| A30U A78C A86G A126G G137A | 0.07 |
| A30U U39A U72C | 0.35 |
| A33G A51G A92G | 0.88 |
| A30G A60U A64G G74A A91G U100C A110G | 0.07 |
| A33G A62C A66U G79U A96G | 0.05 |
| A30U A66G U108C | 0.03 |
| A30G U87A U133C | 1.55 |
| A30G A78U A82G U100A | 0.04 |

| Variant | self-cleavage |
| --- | --- |
| A30G A55G A89G A118G | 0.18 |
| A30U G75A U87A A126G | 0.03 |
| A30C A82G A95G C112A G137U | 0.03 |
| A30G U97C A110U A116G | 0.05 |
| A33G A60G A68U | 1.18 |
| A33G A47G A64G A117G | 0.76 |
| A33G A55G U72G A78G | 0.2 |
| A33G A54U A110G | 0.11 |
| A33G A59G A118G | 0.61 |
| A30U A78U U132C | 0.21 |
| A30G A82U U102A A118G | 0.68 |
| A30G A33G A55G | 0.94 |
| A30G A63G A82G U100C U103A | 1.62 |
| A33G A51U U70A | 0.64 |
| A30G A94G U103C A114G A125G | 0.08 |
| A30G A82G U131C | 0.37 |
| A30G U124C A140G | 0.37 |
| A30G U57A A68G A69G U72A | 0.21 |
| G31C A47U A62G U87C U130A | 0.22 |
| A30G A78G U97C G138A | 0.26 |
| G29U A82C A95G | 0.24 |
| A30G U57A U72C | 0.49 |
| A30G A95G A96G U108C | 0 |
| A30G A47G A51G A67G A111U | 0 |

| Variant | self-cleavage |
| --- | --- |
| A33G A89U A98G | 0.33 |
| A30G A52C A125G A126U | 0.67 |
| A33G A56G A66G U103G | 0.05 |
| A30G A117G U139C | 1.04 |
| A30G A56G A64C A110U | 1.09 |
| A30G U70A A117U | 0.14 |
| A30G U103C U127C | 0.81 |
| A33G C40U G73U | 0.12 |
| A33G A69U A118G A125G | 0.1 |
| A30U A56C A95G | 1.48 |
| G31A A82U U120C | 0.16 |
| A33C A52U A54G A55G U57A | 1 |
| A30G U39C A52U A66G A126G | 1.71 |
| A30G G31A A60U A67G | 1.52 |
| A33G A63G U103C A117G | 0.55 |
| A30G A60G U108C | 0.03 |
| A33G A95G U120C | 0.48 |
| A30U U100C U102C | 1.32 |
| A30G U38C A110G A111G | 0.07 |
| A30G A68G U103C | 0.9 |
| A30G A64G A82G U87C A90G | 0.1 |
| A30U A78U A86G C107U U139C | 0.03 |
| A33G A51G U57C A69G | 0.48 |
| A30G G73A A96U | 0.17 |

| Variant | self-cleavage |
| --- | --- |
| A33G A36U G79A A118G | 0.03 |
| A30G A86G A116G | 1.46 |
| C32G U38A A47G U72C A82U | 0.25 |
| A30G U57A A98G | 0.51 |
| A30G A95G C107G U122C | 0.01 |
| A30U A78G A94G U127C | 0.13 |
| A30U A60U G106A | 0.02 |
| A30G U38C U122C | 0.87 |
| A33G A56G A110G U127C | 0.04 |
| G29A U43A A59C A69G U102C | 1.79 |
| C32U U108C U122A | 0.01 |
| A30G G80U C81U | 0.18 |
| A30G U39C U70C | 0.44 |
| A30G U39A A55U A59G U120C A135U | 0.92 |
| A30G U72C A126G U131C | 0.12 |
| A30G A55U A67G | 1.71 |
| A30G A60U A96U | 1.74 |
| A30U U57C G58A A68U A95G U122G | 2.94 |
| A30G A89G A116G | 0.79 |
| A33G A67G U100C U139C | 1.95 |
| A33G G50A A134G | 0.91 |
| A33G C105U A117G A118C | 0.13 |
| A33G A52G A56G A96G A126G | 0.57 |
| A30G A59G A117G | 2.28 |

| Variant | self-cleavage |
| --- | --- |
| A33G A67U A117U | 0.38 |
| A30G U87C U97C | 1.11 |
| A30U A66G U87A | 2.34 |
| A30U A69G A126G U130C | 0.48 |
| A33G A51U U124C U133C | 0.3 |
| A30G A59U A110U | 2.06 |
| A33G U37A A51G A54G A59G A64G U103A A114U | 0.09 |
| A30G A55C U120A | 1.57 |
| A33G A36U U102C G138U | 1.32 |
| A30U A66G U122C U132C | 1.21 |
| A30U A59U A67G | 1.85 |
| G29A A52G A126G | 1.49 |
| A30G A92G U131C | 0.81 |
| A33G A69G A95G A110G | 0.09 |
| A30G U39A U102C | 0.7 |
| A33G A55G A94U U132C | 1.07 |
| A30G A51U A55G C85U A125G A129G | 0.1 |
| A30G A55U A67G A89G | 0.94 |
| A30U A56G A59U U131C U132C | 0.58 |
| G31A U70C U87C | 0.78 |
| A33G A94G U131C | 0.89 |
| A33G A63U A96G A111G | 0.02 |
| C32U U72C A78U A89U U120C | 0.06 |

From the RNAGym collection of RNA variant scans (doi:10.7554/elife.90254)
